Measured values published in the supplement of paper PMC6609913.
Counter-ions that a name gives are not always drawn. ± gives the standard deviation of the averaged measurements. Over roughly 1,300 compounds, “normalised cell viability” has its median near 1; the lowest 2% begin near 0.14. The list shows a part of the results.

System: V-C8 (BRCA2-deficient hamster cells)
Assay: normalised cell viability (fraction of plate median); higher = more viable cells (less toxic)
Details: 5 µM
Method in brief: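 Library drugs, held as 10 mM stocks in DMSO, were diluted to 5 μM in 100 μl medium and added to 96-well plates of V-C8 hamster cells, either lacking BRCA2 or with BRCA2 restored, 24 h after seeding. Plates ran for 3 days (screen 1) or 6 days (screen 2), alongside solvent-only wells. Viability came from a resazurin readout, median-plate normalised, as the mean of triplicate wells.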

SMILES | normalised cell viability (treatment time: 3 days) | normalised cell viability (treatment time: 6 days)
c1ccc(CN(CC2=NCCN2)c2ccccc2)cc1 [Antazoline hydrochloride] | 0.99955 ± 0.0007 | 1.05 ± 0.074
CC(=O)N(CC(O)CN(C(C)=O)c1c(I)c(C(=O)NCC(O)CO)c(I)c(C(=O)NCC(O)CO)c1I)c1c(I)c(C(=O)NCC(O)CO)c(I)c(C(=O)NCC(O)CO)c1I (stereo not given) [Iodixanol] | 0.989 ± 0.1 | 1.02 ± 0.037
CC(C(=O)O)c1ccc(C(=O)c2ccccc2)s1 (stereo not given) [Tiaprofenic acid] | 0.163 ± 0.0088 | 0.153 ± 0.0061
N=C(N)NCCN1CCCCCCC1 [Guanethidine sulfate] | 0.956 ± 0.096 | 0.928 ± 0.088
C#C[C@]1(O)CC[C@H]2[C@@H]3CCC4=CC(=O)CC[C@@H]4[C@H]3CC[C@@]21CC [Norgestrel-(-)-D] | 1.016 ± 0.004 | 0.997 ± 0.015
CC(CN(C)C)CN1c2ccccc2Sc2ccccc21 (stereo not given) [Trimeprazine tartrate] | 0.978 ± 0.038 | 0.964 ± 0.03
CC1(C)[C@@H](OC(=O)CCC(=O)O)CC[C@]2(C)[C@H]3C(=O)C=C4[C@@H]5C[C@@](C)(C(=O)O)CC[C@]5(C)CC[C@@]4(C)[C@]3(C)CC[C@@H]12 [Carbenoxolone disodium salt] | 1 ± 0.041 | 1.15 ± 0.26
C=CCOC(Cn1ccnc1)c1ccc(Cl)cc1Cl (stereo not given) [Enilconazole] | 0.93 ± 0.04 | 0.943 ± 0.015
CC(CN(C)C)C(C)(O)Cc1ccc(Cl)cc1 (stereo not given) [Clobutinol hydrochloride] | 1.05 ± 0.13 | 1.11 ± 0.064
C[C@]1(Cn2ccnn2)[C@H](C(=O)O)N2C(=O)C[C@H]2S1(=O)=O [Tazobactam] | 1.03 ± 0.038 | 1.04 ± 0.036
CC[C@@H](CO)NCCN[C@@H](CC)CO [Ethambutol dihydrochloride] | 1.04 ± 0.046 | 1.09 ± 0.12
CC(=O)OCC(=O)[C@@]1(OC(C)=O)[C@@H](C)C[C@H]2[C@@H]3C[C@H](F)C4=CC(=O)C=C[C@]4(C)[C@@]3(F)[C@@H](O)C[C@@]21C [Diflorasone Diacetate] | 1.18 ± 0.074 | 1.02 ± 0.051
CCCOc1ccc(C(=O)OCCN(CC)CC)cc1N [Proparacaine hydrochloride] | 0.951 ± 0.039 | 1.01 ± 0.058
COC(=O)Nc1nc2cc([S+]([O-])c3ccccc3)ccc2[nH]1 (stereo not given) [Oxfendazol] | 0.712 ± 0.076 | 0.775 ± 0.014
NC1CCN(c2nc3c(cc2F)c(=O)c(C(=O)O)cn3-c2ccc(F)cc2F)C1 (stereo not given) [Tosufloxacin hydrochloride] | 1.01 ± 0.048 | 1.08 ± 0.024
COc1ccccc1OCC(O)COC(N)=O (stereo not given) [Methocarbamol] | 1.03 ± 0.038 | 1.01 ± 0.018
Cc1cc(N)c2ccccc2[n+]1CCCCCCCCCC[n+]1c(C)cc(N)c2ccccc21 [Dequalinium dichloride] | 0.171 ± 0.0032 | 0.162 ± 0.013
Nc1ccn([C@@H]2CS[C@H](CO)O2)c(=O)n1 [Lamivudine] | 0.147 ± 0.0082 | 0.139 ± 0.012
CO/N=C(\C(=O)N[C@@H]1C(=O)N2C(C(=O)OC(C)OC(C)=O)=C(COC(N)=O)CS[C@H]12)c1ccco1 (stereo not given in full) [Cefuroxime axetil] | 1.04 ± 0.04 | 1.02 ± 0.11
O=C(c1ccccc1)c1ccc2n1CCC2C(=O)O (stereo not given) [Ketorolac tromethamine] | 1.01 ± 0.03 | 1 ± 0.051
CCOC(=O)[C@@](C)(N)Cc1ccc(O)c(O)c1 [Methyldopate hydrochloride] | 0.895 ± 0.09 | 0.938 ± 0.063
COc1c(N2CCNC(C)C2)c(F)cc2c(=O)c(C(=O)O)cn(C3CC3)c12 (stereo not given) [Gatifloxacin] | 1.01 ± 0.046 | 1.02 ± 0.036
CC(C)(O)c1ccccc1CC[C@@H](SCC1(CC(=O)O)CC1)c1cccc(/C=C/c2ccc3ccc(Cl)cc3n2)c1 [Montelukast] | 1.09 ± 0.11 | 1.1 ± 0.052
CN1Cc2c(N)cccc2C(c2ccccc2)C1 (stereo not given) [Nomifensine maleate] | 1.058 ± 0.01 | 0.961 ± 0.044
c1ccc(CNc2ncnc3nc[nH]c23)cc1 [Aminopurine, 6-benzyl] | 0.947 ± 0.1 | 0.94 ± 0.075
Nc1ccn([C@@H]2O[C@H](CO)[C@@H](O)[C@@H]2O)c(=O)n1 [Cytarabine] | 0.206 ± 0.0091 | 0.196 ± 0.022
COc1ccnc(C[S+]([O-])c2nc3cc(OC(F)F)ccc3[nH]2)c1OC (stereo not given) [Pantoprazole sodium] | 1.17 ± 0.35 | 1.09 ± 0.086
Nc1ccc(S(=O)(=O)Nc2ccccn2)cc1 [Sulfapyridine] | 1.02 ± 0.025 | 1.058 ± 0.0097
C[C@@H]1C[C@H]2[C@@H]3C[C@H](F)C4=CC(=O)C=C[C@]4(C)[C@@]3(F)[C@@H](O)C[C@]2(C)[C@@]1(O)C(=O)COC(=O)C(C)(C)C [Flumethasone pivalate] | 1.08 ± 0.079 | 1.03 ± 0.055
CCOc1ccccc1OC(c1ccccc1)C1CNCCO1 (stereo not given) [Reboxetine mesylate] | 0.966 ± 0.024 | 0.998 ± 0.021
